{"source": "PubChem BioAssay AID1768", "about": "(National Center for Advancing Translational Sciences (NCATS), 2009)", "note": "Several values for one entry are separate records, joined by “and”; a condition that tells them apart may be missing. Equal entries are not always repeated. Out of some 270,000 compounds screened, about 620 (0.23%) were called active. This list was built around the results that the source calls inconclusive (neither active nor inactive); the mix of calls is not that of the screen. Calls follow the shape of the dose curve; as a rule, active = well fitted inhibition curve with a large enough effect in the polarisation, with a control signal flat (not every such curve was filed as active); inconclusive = small, poorly fitted or top-dose-only effect, or effect the other way, or a change in a side signal; inactive = no such curve, though single readings can be large or run the other way; the % refers to the polarisation. Where the call is inconclusive, the potency comes from a doubtful curve fit. A note “side channel” means that the fit belongs to a control or component signal, not to the main read-out. Potency is read from the fitted curve at half-maximal effect; tags tell the direction and shape of the fitted curve or compound fluorescence and quenching.", "data": [{"biological_target": "Menin (Homo sapiens) (UniProt O00255)", "sequence (O00255 whole entry, looked up)": "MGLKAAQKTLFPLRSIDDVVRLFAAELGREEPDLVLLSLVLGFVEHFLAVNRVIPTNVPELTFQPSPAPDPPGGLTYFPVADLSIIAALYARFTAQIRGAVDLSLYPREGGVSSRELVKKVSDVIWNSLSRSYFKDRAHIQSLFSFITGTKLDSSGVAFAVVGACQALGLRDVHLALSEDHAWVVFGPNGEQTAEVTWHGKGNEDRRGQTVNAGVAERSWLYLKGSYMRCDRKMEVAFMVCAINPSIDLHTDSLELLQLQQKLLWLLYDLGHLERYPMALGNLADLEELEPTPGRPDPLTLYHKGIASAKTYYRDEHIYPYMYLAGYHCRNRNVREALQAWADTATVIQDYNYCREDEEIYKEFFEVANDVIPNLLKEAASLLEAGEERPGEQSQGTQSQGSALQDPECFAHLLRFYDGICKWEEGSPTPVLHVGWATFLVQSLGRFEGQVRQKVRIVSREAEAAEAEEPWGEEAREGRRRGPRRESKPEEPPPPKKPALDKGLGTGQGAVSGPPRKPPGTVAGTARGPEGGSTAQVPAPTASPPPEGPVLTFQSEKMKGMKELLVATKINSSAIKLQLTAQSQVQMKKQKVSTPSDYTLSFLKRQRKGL", "assay": "qHTS Assay for Inhibitors Targeting the Menin-MLL Interaction in MLL Related Leukemias: Competition With Texas Red Labeled MLL-derived Mutant Peptide; as to FP activity change, negative = inhibition: % of control where 0% means no effect", "details": "fluorescence polarization; FP activity change, negative = inhibition: at 61.6 µM (top of the series)", "values": [{"smiles": "O=C(Nc1cc(C(=O)Nc2ccc(S(=O)(=O)O)cc2S(=O)(=O)O)cc(C(=O)Nc2ccc(S(=O)(=O)O)cc2S(=O)(=O)O)c1)Nc1cc(C(=O)Nc2ccc(S(=O)(=O)O)cc2S(=O)(=O)O)cc(C(=O)Nc2ccc(S(=O)(=O)O)cc2S(=O)(=O)O)c1", "Potency": "inconclusive: 25.1 µM [fluorescent, side channel, partial curve]"}, {"smiles": "COC(=O)/C(=C1/Oc2cc3c(cc2S1)OCO3)C(F)(F)F", "Potency": "inconclusive: 20 µM [inhibitor, single point]"}, {"smiles": "O=C(Nc1nnc(S(=O)(=O)N2CCCCCC2)s1)c1ccccc1F", "Potency": "inconclusive: 22.4 µM [quencher, side channel, partial curve]"}, {"smiles": "CCOC(=O)N1CCN(C(=O)COc2cc(=O)n(CC)c3ccccc23)CC1", "Potency": "inconclusive: 3.55 µM [inhibitor, single point]"}, {"smiles": "CCOc1ccc(N(Cc2ccc(OC)c(OC)c2)C(=O)c2ccco2)cc1", "Potency": "inconclusive: 7.94 µM [fluorescent, side channel, partial curve]"}, {"smiles": "Cc1cccc(OCC(=O)Nc2ccc(NC(=O)c3ccccc3)cc2)c1", "Potency": "inconclusive: 14.1 µM [inhibitor, partial curve, poor fit]"}, {"smiles": "Cc1ccc(C(=O)Nc2ccc(S(=O)(=O)N3CCc4ccccc43)cc2)o1", "Potency": "inconclusive: 12.6 µM [quencher, side channel, partial curve]"}, {"smiles": "CC(C)=CCN1CCN(Cc2cc3ccccc3[nH]2)CC1CCO", "note": "(centres undefined)", "Potency": "inconclusive: 12.6 µM [inhibitor, partial curve]"}, {"smiles": "CN(C)c1ccc(N/C=C/C(=O)c2ccc(F)cc2)cc1", "Potency": "inconclusive: 39.8 µM [inhibitor, single point]"}, {"smiles": "COc1ccc(N=Cc2c(O)cc(C)oc2=O)cc1", "Potency": "inactive"}, {"smiles": "CC(=O)c1cccc(NC(=O)c2cc(-c3ccco3)nc3ccccc23)c1", "Potency": "inconclusive: 14.1 µM [quencher, side channel, partial curve]"}, {"smiles": "C/C(CC(=O)Nc1ccc(N(C)C)cc1)=N\\NC(=O)Cc1csc(N)n1", "Potency": "inconclusive: 39.8 µM [quencher, side channel, single point]"}, {"smiles": "O=C(Cc1ccc(Cl)cc1)Nc1cccc(C(=O)Nc2ccccc2C(=O)O)c1", "Potency": "inconclusive: 14.1 µM [quencher, side channel, partial curve]"}, {"smiles": "Fc1ccc(N=C2NN=C(c3cc(F)ccc3F)CS2)cc1", "Potency": "inactive"}, {"smiles": "COc1cc([N+](=O)[O-])ccc1NC(=O)Nc1nc2c(s1)CCCC2", "Potency": "inconclusive: 2.82 µM [quencher, side channel, full curve, poor fit]"}, {"smiles": "CCC(C=C[C@@H]1OC(=O)C=C[C@H]1C)=C[C@H](C)CC=CC(C)=C[C@@H](C)C(=O)[C@@H](C)[C@H](O)[C@@H](C)CC(C)=CC(=O)O", "FP activity change, negative = inhibition": "inactive: -21.9% [at 2.28 µM]"}, {"smiles": "CCN1C(=O)/C(=C2\\SC(=S)N(NC(=O)c3cccnc3)C2=O)c2ccccc21", "Potency": "inconclusive: 28.2 µM [quencher, side channel, single point]"}, {"smiles": "C/C=N\\NC(=O)CNC(=O)CNC(=O)c1ccccc1", "Potency": "inactive"}, {"smiles": "N#C/C(C(=O)c1ccccc1)=C1/SC=C(N)N1c1ccccc1", "Potency": "inconclusive: 39.8 µM [fluorescent, side channel, single point]"}, {"smiles": "COCC(=O)N1CCCC(C(=O)c2ccc3c4c(cccc24)CC3)C1", "note": "(centres undefined)", "Potency": "inconclusive: 39.8 µM [inhibitor, single point]"}, {"smiles": "COc1ccccc1[C@H]1C(c2cccc(Cl)c2)=NN(c2ccccc2)[C@@H]1CO", "Potency": "inconclusive: 15.8 µM [quencher, side channel, partial curve]"}, {"smiles": "CC(C)(C)OC(=O)CN1C(=O)S/C(=C\\c2ccc(-c3cccc(C(=O)O)c3)o2)C1=O", "Potency": "inconclusive: 31.6 µM [quencher, side channel, partial curve]"}, {"smiles": "Nc1ccccc1Nc1c(F)c(F)nc(F)c1Cl", "Potency": "inconclusive: 25.1 µM [quencher, side channel, partial curve]"}, {"smiles": "Nc1c(C(=O)Nc2nccs2)sc2nc(-c3cccs3)cc(C(F)(F)F)c12", "Potency": "inconclusive: 8.91 µM [quencher, side channel, partial curve]"}, {"smiles": "COc1ccc2c(c1)CCc1sc(NC(=O)c3ccc(C)cc3)nc1-2", "Potency": "inconclusive: 2.82 µM [quencher, side channel, full curve, poor fit]"}, {"smiles": "O=C(NCc1ccccn1)Nc1ccccc1Cl", "Potency": "inactive"}, {"smiles": "COc1ccc(C2=C(Nc3ccc(C)cc3)c3ccccc3C2=O)cc1", "Potency": "inconclusive: 14.1 µM [quencher, side channel, partial curve]"}, {"smiles": "NNc1nc(-c2ccccc2)c2ccccc2n1", "Potency": "inconclusive: 39.8 µM [fluorescent, side channel, single point]"}, {"smiles": "CC(C(=O)Nc1ccccc1-c1ccccc1)N(C)Cc1nc2ccccc2c(=O)[nH]1", "note": "(centres undefined)", "Potency": "inconclusive: 22.4 µM [fluorescent, side channel, single point]"}, {"smiles": "O=C1NC(=O)/C(=C/c2cc3c(cc2Br)OCO3)S1", "Potency": "inconclusive: 31.6 µM [quencher, side channel, single point]"}, {"smiles": "O=C(/C=C/c1cccs1)Nc1sc2c(c1C(=O)O)CCCC2", "Potency": "inconclusive: 14.1 µM [quencher, side channel, partial curve]"}, {"smiles": "CC(C)C1=NN(C(=O)c2ccccc2)C(O)(C(C)(C)C)C1", "note": "(centres undefined)", "Potency": "inconclusive: 25.1 µM [inhibitor, partial curve]"}, {"smiles": "Cc1ccc(Nc2nnc(SCC(=O)Nc3ccccc3[N+](=O)[O-])s2)cc1", "Potency": "inconclusive: 22.4 µM [quencher, side channel, single point]"}, {"smiles": "S=C(Nc1ccc(Cl)cc1)Nc1ccc2cn[nH]c2c1", "Potency": "inconclusive: 22.4 µM [quencher, side channel, single point]"}, {"smiles": "CSc1nsc(SCC(=O)Nc2ccc(OC(C)=O)cc2)n1", "Potency": "inconclusive: 22.4 µM [quencher, side channel, single point]"}, {"smiles": "CC[C@@H](C)C(NC(=O)OC(C)(C)C)c1cn([C@@H](Cc2cc3ccccc3[nH]2)C(=O)N2CCN(C(=O)OC(C)(C)C)CC2)nn1", "note": "(some centres undefined)", "Potency": "inconclusive: 10 µM [fluorescent, side channel, partial curve]"}, {"smiles": "O=C(Nc1ccccc1)Nc1cccc(NC(=O)Nc2ccccc2)c1F", "Potency": "inconclusive: 20 µM [fluorescent, side channel, partial curve]"}, {"smiles": "Cc1ccc(O)c(NC(=O)c2cc(-c3ccccc3)on2)c1", "Potency": "inconclusive: 31.6 µM [inhibitor, single point]"}, {"smiles": "Cc1ccc(N=Nc2ccc(N)cc2C)c(S(N)(=O)=O)c1", "Potency": "inconclusive: 20 µM [quencher, side channel, partial curve]"}, {"smiles": "O=[N+]([O-])c1cccc(-c2ccc(C(=S)N3CCOCC3)o2)c1", "Potency": "inconclusive: 14.1 µM [quencher, side channel, partial curve]"}, {"smiles": "O=C(Nc1cccc([N+](=O)[O-])c1)c1cccc(C(=O)Nc2cccc([N+](=O)[O-])c2)c1", "Potency": "inconclusive: 7.08 µM [quencher, side channel, partial curve]"}, {"smiles": "N#C/C(=C\\c1c[nH]c2ccc(Br)cc12)c1ccccn1", "Potency": "inconclusive: 11.2 µM [quencher, side channel, partial curve]"}, {"smiles": "CCCCc1c(C)c(C#N)c2nc3ccccc3n2c1NCCN(C)C", "Potency": "inconclusive: 2.24 µM [inhibitor, partial curve]"}, {"smiles": "Oc1ccc2ccccc2c1C=Nc1ccccc1-c1nc2ccccc2[nH]1", "Potency": "inconclusive: 28.2 µM [quencher, side channel, partial curve]"}, {"smiles": "CN(C)S(=O)(=O)c1ccc(C(=O)Nc2cc3c(cc2C(=O)O)OCCCO3)cc1", "Potency": "inconclusive: 14.1 µM [quencher, side channel, partial curve]"}, {"smiles": "COc1ccc(/C=N/NC(=O)c2ccc3ccccc3c2)cc1OS(=O)(=O)c1ccc(NC(C)=O)cc1", "Potency": "inconclusive: 25.1 µM [inhibitor, single point]"}, {"smiles": "O=C(NCc1ccc(-n2cccc2)cc1)c1cccc(F)c1", "Potency": "inconclusive: 8.91 µM [fluorescent, side channel, partial curve]"}, {"smiles": "CCn1c(CC(=O)Nc2ccc(C)c(Cl)c2)nnc1SCc1ccc(Cl)c(Cl)c1", "Potency": "inconclusive: 11.2 µM [inhibitor, partial curve]"}, {"smiles": "O=S(=O)(Nc1ccc(Br)cc1)c1cccc(NC(=S)NCCN2CCOCC2)c1", "Potency": "inactive"}, {"smiles": "CS(=O)(=O)N1CCN(C(=S)NCc2ccc(Cl)cc2)CC1", "Potency": "inconclusive: 39.8 µM [fluorescent, side channel, single point]"}, {"smiles": "CCOC(=O)Cc1csc(NC(=O)CCCCCN2C(=O)c3ccccc3C2=O)n1", "Potency": "inconclusive: 8.91 µM [inhibitor, partial curve]"}, {"smiles": "CSc1nc2cc(Oc3cccc(Cl)c3Cl)c(Cl)cc2[nH]1", "Potency": "inconclusive: 10 µM [quencher, side channel, partial curve] and inconclusive: 28.2 µM [quencher, side channel, partial curve]"}, {"smiles": "CCOC(=O)c1ccc(NC(=S)NCCc2ccc(F)cc2)cc1", "Potency": "inconclusive: 15.8 µM [quencher, side channel, partial curve]"}, {"smiles": "CC1CCCN(CCCNC(=O)c2cc3c(Cl)nc4ccccc4c3s2)C1", "note": "(centres undefined)", "Potency": "inconclusive: 15.8 µM [inhibitor, partial curve]"}]}]}
